The values that follow come from the supplement of paper PMC12217912.

First the molecules themselves.
B1: TEV protease; numbered along this chain (parent)
chain: MGESLFKGPRDYNPISSSICHLTNESDGHTTSLYGIGFGPFIITNKHLFRRNNGTLVVQSLHGVFKVKDTTTLQQHLVDGRDMIIIRMPKDFPPFPQKLKFREPQREERICLVTTNFQTKSMSSMVSDTSCTFPSGDGIFWKHWIQTKDGQCGSPLVSTRDGFIVGIHSASNFTNTNNYFTSVPKNFMELLTNQEAQQWVSGWRLNADSVLWGGHKVFMVKPEEPFQPVKEATQL

The list shows a part of the results. The full chains were built here from the parent and the listed change. Values near 0.05 are background.

The variants in this assay derive from B1. The assay can be described thus: raw area under fraction-flipped curve 0-4 h after induction (AUC4h, not background-subtracted), DNA-recorder readout of cleavage of the substrate (dimensionless); higher = more cleavage of the substrate by the protease variant. The conditions noted are these: temperature: 34 °C; time window: 0-4 h after rhamnose induction. The method, then: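 In vivo DNA recorder in E. coli TOP10(DE3) ΔrhaA at 34 °C. Each TEVp single-site mutant (parent TEVp 0) is paired with a single-site variant of the 7-mer TEVs (canonical ENLYFQ|S). The substrate sits between flexible linkers in a Bxb1-sfGFP-TEVs-SsrA fusion, so cleavage stabilises Bxb1 and speeds flipping of a recombination array, read by NGS. The value is the raw area under the fraction-flipped curve over 0-4 h after rhamnose induction (AUC4h), with ≥20 reads per time point. It is not background-subtracted; inactive controls average about 0.047.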
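Also: Bxb1 expression induced with 0.2% (w/v) L-rhamnose at OD600 near 0.5, cultures sampled hourly, flipped fraction per protease–substrate barcode pair counted by paired-end Illumina sequencing.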

As to MGESLFKGPRDYNPISSAICHLTNESDGHTTSLYGIGFGPFIITNKHLFRRNNGTLVVQSLHGVFKVKDTTTLQQHLVDGRDMIIIRMPKDFPPFPQKLKFREPQREERICLVTTNFQTKSMSSMVSDTSCTFPSGDGIFWKHWIQTKDGQCGSPLVSTRDGFIVGIHSASNFTNTNNYFTSVPKNFMELLTNQEAQQWVSGWRLNADSVLWGGHKVFMVKPEEPFQPVKEATQL [S18A], the “area with substrate ENLYFCS” value amounted to 0.0581, the “area with substrate ENLYFES” value was 0.0552, the “area with substrate ENLYFFS” value was found to be 0.079 and the “area with substrate ENLYFIS” value is 0.0503. For the same variant, the “area with substrate ENLYFKS” value amounted to 0.0595, the “area with substrate ENLYFMS” value was found to be 0.0638, the “area with substrate ENLYFNS” value was determined as 0.0679 and the “area with substrate ENLYFPS” value amounted to 0.0557. The “area with substrate ENLYFSS” value is 0.0876, the “area with substrate ENLYFTS” value is 0.0559, the “area with substrate ENLYFVS” value came out at 0.029 and the “area with substrate ENLYFWS” value is 0.0542. Also, the “area with substrate ENLYFYS” value is 0.0575.

MGESLFKGPRDYNPISSSICHLTNESDGHTASLYGIGFGPFIITNKHLFRRNNGTLVVQSLHGVFKVKDTTTLQQHLVDGRDMIIIRMPKDFPPFPQKLKFREPQREERICLVTTNFQTKSMSSMVSDTSCTFPSGDGIFWKHWIQTKDGQCGSPLVSTRDGFIVGIHSASNFTNTNNYFTSVPKNFMELLTNQEAQQWVSGWRLNADSVLWGGHKVFMVKPEEPFQPVKEATQL [T31A]: the “area with substrate ENLYFCS” value came out at 0.0544, the “area with substrate ENLYFDS” value is 0.0526, the “area with substrate ENLYFES” value stood at 0.0724 and the “area with substrate ENLYFFS” value worked out at 0.0677. The “area with substrate ENLYFHS” value stood at 0.0546, the “area with substrate ENLYFIS” value was 0.0591, the “area with substrate ENLYFKS” value stood at 0.058 and the “area with substrate ENLYFLS” value was determined as 0.0636. Also, the “area with substrate ENLYFMS” value came out at 0.067, the “area with substrate ENLYFNS” value came out at 0.0627, the “area with substrate ENLYFPS” value was found to be 0.0692 and the “area with substrate ENLYFRS” value is 0.0402. The “area with substrate ENLYFTS” value was 0.0597 and the “area with substrate ENLYFVS” value is 0.0551.

Regarding MGESLFKGPRDYNPISSSICHLTNESDGHTTSLYGIGFGPFIITNKHLFRRNNGTLVVQSLHGVFKVKDTTTLQQHLVDGRDMIIIRMPKDFPPFPQKLKFREPQREERICLVTTNFQTKSMSSMVSDTSCTFPSGDGIFWKHWIQTKDGQCGSPLVSTRDGFIVGIHSASNFTNTNNYFTSVPKNFMELLTNQEAQQWVSGWRLNADSVLWGGHKVFMVKPEEPFQPVKCATQL [E231C], the “area with substrate ENLYFAS” value stood at 0.0614, the “area with substrate ENLYFCS” value was determined as 0.0556, the “area with substrate ENLYFES” value was 0.0683 and the “area with substrate ENLYFFS” value was determined as 0.0635. Besides, the “area with substrate ENLYFGS” value turned out to be 0.0873, the “area with substrate ENLYFIS” value was found to be 0.0573, the “area with substrate ENLYFKS” value is 0.058 and the “area with substrate ENLYFMS” value was determined as 0.068. The “area with substrate ENLYFPS” value is 0.0539, the “area with substrate ENLYFRS” value came out at 0.055, the “area with substrate ENLYFTS” value came out at 0.0768 and the “area with substrate ENLYFVS” value worked out at 0.0618. For the same variant, the “area with substrate ENLYFWS” value came to 0.053.

With MGMSLFKGPRDYNPISSSICHLTNESDGHTTSLYGIGFGPFIITNKHLFRRNNGTLVVQSLHGVFKVKDTTTLQQHLVDGRDMIIIRMPKDFPPFPQKLKFREPQREERICLVTTNFQTKSMSSMVSDTSCTFPSGDGIFWKHWIQTKDGQCGSPLVSTRDGFIVGIHSASNFTNTNNYFTSVPKNFMELLTNQEAQQWVSGWRLNADSVLWGGHKVFMVKPEEPFQPVKEATQL [E3M], the “area with substrate ENLYFCS” value came to 0.0644, the “area with substrate ENLYFES” value stood at 0.0703, the “area with substrate ENLYFFS” value is 0.0555 and the “area with substrate ENLYFIS” value was determined as 0.0574. In addition, the “area with substrate ENLYFMS” value was 0.0775, the “area with substrate ENLYFNS” value was determined as 0.0699, the “area with substrate ENLYFPS” value amounted to 0.062 and the “area with substrate ENLYFSS” value was 0.0563. Besides, the “area with substrate ENLYFWS” value was determined as 0.0499.

On to MGESLFKGPRDYNPISSSICHLTNESDGHTTSLYGIGFGPFIITNKHLFKRNNGTLVVQSLHGVFKVKDTTTLQQHLVDGRDMIIIRMPKDFPPFPQKLKFREPQREERICLVTTNFQTKSMSSMVSDTSCTFPSGDGIFWKHWIQTKDGQCGSPLVSTRDGFIVGIHSASNFTNTNNYFTSVPKNFMELLTNQEAQQWVSGWRLNADSVLWGGHKVFMVKPEEPFQPVKEATQL [R50K], for which the “area with substrate ENLYFCS” value came out at 0.0722, the “area with substrate ENLYFES” value is 0.0708, the “area with substrate ENLYFFS” value turned out to be 0.0539 and the “area with substrate ENLYFHS” value is 0.0679. The “area with substrate ENLYFIS” value was 0.0527, the “area with substrate ENLYFKS” value was determined as 0.0617, the “area with substrate ENLYFLS” value worked out at 0.0754 and the “area with substrate ENLYFMS” value was 0.0586. Further, the “area with substrate ENLYFNS” value was determined as 0.0599, the “area with substrate ENLYFPS” value was 0.0655, the “area with substrate ENLYFRS” value came to 0.0614 and the “area with substrate ENLYFSS” value worked out at 0.0643. Also, the “area with substrate ENLYFTS” value was 0.0541 and the “area with substrate ENLYFWS” value is 0.058.

MGESLFKGPRDYNPISSSICHLTNESDGHTTSLYGIGFGPFIITNKHLFRRVNGTLVVQSLHGVFKVKDTTTLQQHLVDGRDMIIIRMPKDFPPFPQKLKFREPQREERICLVTTNFQTKSMSSMVSDTSCTFPSGDGIFWKHWIQTKDGQCGSPLVSTRDGFIVGIHSASNFTNTNNYFTSVPKNFMELLTNQEAQQWVSGWRLNADSVLWGGHKVFMVKPEEPFQPVKEATQL [N52V]: the “area with substrate ENLYFCS” value amounted to 0.0536, the “area with substrate ENLYFDS” value was determined as 0.0639, the “area with substrate ENLYFES” value stood at 0.0603 and the “area with substrate ENLYFFS” value stood at 0.0672. Moreover, the “area with substrate ENLYFHS” value was 0.0596, the “area with substrate ENLYFIS” value came to 0.0596, the “area with substrate ENLYFKS” value was found to be 0.0506 and the “area with substrate ENLYFLS” value is 0.0596. For the same variant, the “area with substrate ENLYFMS” value was 0.0468, the “area with substrate ENLYFNS” value is 0.0569, the “area with substrate ENLYFPS” value came out at 0.0576 and the “area with substrate ENLYFRS” value came out at 0.0551. In addition, the “area with substrate ENLYFSS” value was determined as 0.0578, the “area with substrate ENLYFTS” value was 0.071 and the “area with substrate ENLYFWS” value worked out at 0.0527.

For the variant MGESLFKGPRDYNPISSSICHLTNESDGHTTSLYGIGFGPFIITNKHLFRRPNGTLVVQSLHGVFKVKDTTTLQQHLVDGRDMIIIRMPKDFPPFPQKLKFREPQREERICLVTTNFQTKSMSSMVSDTSCTFPSGDGIFWKHWIQTKDGQCGSPLVSTRDGFIVGIHSASNFTNTNNYFTSVPKNFMELLTNQEAQQWVSGWRLNADSVLWGGHKVFMVKPEEPFQPVKEATQL [N52P], the “area with substrate ENLYFCS” value was 0.0358, the “area with substrate ENLYFDS” value is 0.0594, the “area with substrate ENLYFES” value worked out at 0.0718 and the “area with substrate ENLYFFS” value amounted to 0.0608. For the same variant, the “area with substrate ENLYFHS” value was 0.0522, the “area with substrate ENLYFIS” value was 0.0668, the “area with substrate ENLYFLS” value is 0.0442 and the “area with substrate ENLYFNS” value was 0.0576. The “area with substrate ENLYFPS” value was found to be 0.0565, the “area with substrate ENLYFRS” value stood at 0.06 and the “area with substrate ENLYFWS” value was 0.0658.

As to MGESLFKGPRDYNPISSSKCHLTNESDGHTTSLYGIGFGPFIITNKHLFRRNNGTLVVQSLHGVFKVKDTTTLQQHLVDGRDMIIIRMPKDFPPFPQKLKFREPQREERICLVTTNFQTKSMSSMVSDTSCTFPSGDGIFWKHWIQTKDGQCGSPLVSTRDGFIVGIHSASNFTNTNNYFTSVPKNFMELLTNQEAQQWVSGWRLNADSVLWGGHKVFMVKPEEPFQPVKEATQL [I19K], the “area with substrate ENLYFCS” value was 0.0565, the “area with substrate ENLYFES” value came to 0.0571, the “area with substrate ENLYFFS” value was found to be 0.0642 and the “area with substrate ENLYFHS” value was 0.033. Besides, the “area with substrate ENLYFIS” value worked out at 0.0496, the “area with substrate ENLYFMS” value was determined as 0.0507, the “area with substrate ENLYFNS” value was 0.0606 and the “area with substrate ENLYFPS” value is 0.0464. The “area with substrate ENLYFRS” value worked out at 0.0448, the “area with substrate ENLYFSS” value came to 0.047, the “area with substrate ENLYFTS” value was determined as 0.0418 and the “area with substrate ENLYFYS” value is 0.0443.

For the variant MGESLFKGPRDYNPISSSVCHLTNESDGHTTSLYGIGFGPFIITNKHLFRRNNGTLVVQSLHGVFKVKDTTTLQQHLVDGRDMIIIRMPKDFPPFPQKLKFREPQREERICLVTTNFQTKSMSSMVSDTSCTFPSGDGIFWKHWIQTKDGQCGSPLVSTRDGFIVGIHSASNFTNTNNYFTSVPKNFMELLTNQEAQQWVSGWRLNADSVLWGGHKVFMVKPEEPFQPVKEATQL [I19V], the “area with substrate ENLYFCS” value came out at 0.0554, the “area with substrate ENLYFDS” value was determined as 0.0446, the “area with substrate ENLYFFS” value was 0.0591 and the “area with substrate ENLYFGS” value was 0.064. For the same variant, the “area with substrate ENLYFIS” value worked out at 0.0501, the “area with substrate ENLYFKS” value came out at 0.0729, the “area with substrate ENLYFMS” value was determined as 0.0612 and the “area with substrate ENLYFNS” value was determined as 0.0734. Moreover, the “area with substrate ENLYFPS” value was 0.0601, the “area with substrate ENLYFRS” value stood at 0.073, the “area with substrate ENLYFSS” value was 0.0642 and the “area with substrate ENLYFTS” value was 0.0526. Moreover, the “area with substrate ENLYFVS” value was found to be 0.0436, the “area with substrate ENLYFWS” value came out at 0.0537 and the “area with substrate ENLYFYS” value was determined as 0.0596.

In the case of MGESLFKGPRDYNPISSSICHLTNELDGHTTSLYGIGFGPFIITNKHLFRRNNGTLVVQSLHGVFKVKDTTTLQQHLVDGRDMIIIRMPKDFPPFPQKLKFREPQREERICLVTTNFQTKSMSSMVSDTSCTFPSGDGIFWKHWIQTKDGQCGSPLVSTRDGFIVGIHSASNFTNTNNYFTSVPKNFMELLTNQEAQQWVSGWRLNADSVLWGGHKVFMVKPEEPFQPVKEATQL [S26L], the “area with substrate ENLYFCS” value was 0.0611, the “area with substrate ENLYFDS” value stood at 0.0639, the “area with substrate ENLYFES” value was found to be 0.0512 and the “area with substrate ENLYFFS” value amounted to 0.0528. Besides, the “area with substrate ENLYFGS” value was found to be 0.0691, the “area with substrate ENLYFHS” value came out at 0.0586, the “area with substrate ENLYFIS” value is 0.0627 and the “area with substrate ENLYFNS” value is 0.07. The “area with substrate ENLYFPS” value stood at 0.0703, the “area with substrate ENLYFRS” value was 0.0523, the “area with substrate ENLYFSS” value was found to be 0.0582 and the “area with substrate ENLYFTS” value is 0.0586. The “area with substrate ENLYFVS” value turned out to be 0.0633 and the “area with substrate ENLYFYS” value amounted to 0.061.
